# Measurements as given in the supplement of paper PMC10037445.
# Values joined by “and” are separate entries in the source; they are usually repeats but may differ in a detail not shown here. Equal entries are not always repeated. Whole data set: some 2,900 compounds, median “IRF Lucia reporter activity, fold change vs agonist alone” near 0.9, cut for the highest 2% near 2.8. The list shows a part of the results.
# Tests used:
# [1] = system: RAW-Dual; test: IRF Lucia reporter activity, fold change vs agonist alone; cytotoxicity flag (confluency mask): not cytotoxic; higher = enhanced IRF activity
# Procedure, shortened: (§1)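 RAW-Dual macrophages (50,000 cells/well in DMEM, 384-well plates) received 50 nL of library stock by pin tool, then a PRR agonist 1 h later, and were kept at 37 °C, 5% CO2. After 20 hours, supernatant was read for IRF by QuantiLuc luminescence and for NF-κB by QuantiBlue absorbance at 620 nm. Reporter activity is fold change over agonist-alone wells. Cytotoxic wells had IncuCyte confluency below 70% of agonist controls in both mask sets.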
# [2] = system: RAW-Dual; test: IRF Lucia reporter activity, fold change vs agonist alone; higher = enhanced IRF activity; conditions: library stock concentration (final ~1000-fold dilution): 10 mM, agonist: MPLA (TLR4) […]
# Procedure, shortened: as §1
# [3] = system: RAW-Dual; test: IRF Lucia reporter activity, fold change vs agonist alone; cytotoxicity flag (confluency mask): cytotoxic (confluency <70% of control); higher = enhanced IRF activity
# Procedure, shortened: as §1
# [4] = agonist: 3'3'-cGAMP (STING) 10 ug/mL
# [5] = cytotoxicity flag (confluency mask): not cytotoxic
structure (smiles),measurement,setting,value
CC1C(=O)OC2CC34C5CC(C(C)(C)C)C36C(OC(=O)C6O)OC4(C(=O)O5)C21O (stereo not drawn) (library stock concentration (final ~1000-fold dilution): 10 mM),IRF Lucia reporter activity,[1]; [4],1.02
same,IRF Lucia reporter activity,[1]; agonist: LPS (TLR4) 0.1 ug/mL,0.964
CC1C(=O)OC2CC34C5CC(C(C)(C)C)C36C(OC(=O)C6O)OC4(C(=O)O5)C21O (stereo not drawn),IRF Lucia reporter activity,[2]; [5],0.876
COc1ccc2c(c1)c(CC(=O)OCC(=O)O)c(C)n2C(=O)c1ccc(Cl)cc1,IRF Lucia reporter activity,[2]; [5],0.986
COc1ccc2c(c1)c(CC(=O)OCC(=O)O)c(C)n2C(=O)c1ccc(Cl)cc1 (library stock concentration (final ~1000-fold dilution): 10 mM),IRF Lucia reporter activity,[1]; [4],1.05
same,IRF Lucia reporter activity,[1]; agonist: LPS (TLR4) 0.1 ug/mL,0.987
Cc1[nH]nc(C(F)(F)F)c1Cc1sc2c(c1C(=O)N1CC(C)(O)CO1)c(=O)n(C)c(=O)n2C(C)C (stereo not drawn),IRF Lucia reporter activity,[2]; [5],0.755
Cc1[nH]nc(C(F)(F)F)c1Cc1sc2c(c1C(=O)N1CC(C)(O)CO1)c(=O)n(C)c(=O)n2C(C)C (stereo not drawn) (library stock concentration (final ~1000-fold dilution): 10 mM),IRF Lucia reporter activity,[1]; [4],0.955
same,IRF Lucia reporter activity,[1]; agonist: LPS (TLR4) 0.1 ug/mL,0.637
CCCNC(C)C(=O)Nc1ccccc1C.Cl (stereo not drawn) (library stock concentration (final ~1000-fold dilution): 10 mM),IRF Lucia reporter activity,[1]; [4],1.05
same,IRF Lucia reporter activity,[1]; agonist: LPS (TLR4) 0.1 ug/mL,1.43
CCCNC(C)C(=O)Nc1ccccc1C.Cl (stereo not drawn),IRF Lucia reporter activity,[2]; [5],1.01
NC(=O)C(CCC(F)(F)F)N(Cc1ccc(-c2ncon2)cc1F)S(=O)(=O)c1ccc(Cl)cc1 (stereo not drawn) (library stock concentration (final ~1000-fold dilution): 10 mM),IRF Lucia reporter activity,[1]; [4],0.94
same,IRF Lucia reporter activity,[1]; agonist: LPS (TLR4) 0.1 ug/mL,1.56
NC(=O)C(CCC(F)(F)F)N(Cc1ccc(-c2ncon2)cc1F)S(=O)(=O)c1ccc(Cl)cc1 (stereo not drawn),IRF Lucia reporter activity,[2]; [5],1.3
C=C1CCC(O)C/C1=C/C=C1\CCCC2(C)C1CCC2C(C)/C=C/C(C)C(C)C (stereo not drawn) (library stock concentration (final ~1000-fold dilution): 10 mM),IRF Lucia reporter activity,[1]; [4],0.434
same,IRF Lucia reporter activity,[1]; agonist: LPS (TLR4) 0.1 ug/mL,1.25
C=C1CCC(O)C/C1=C/C=C1\CCCC2(C)C1CCC2C(C)/C=C/C(C)C(C)C (stereo not drawn),IRF Lucia reporter activity,[2]; [5],1.09
Cn1sc(=O)n(Cc2ccccc2)c1=O (library stock concentration (final ~1000-fold dilution): 10 mM),IRF Lucia reporter activity,[3]; [4],0.328
same,IRF Lucia reporter activity,[3]; agonist: LPS (TLR4) 0.1 ug/mL,0.137
Cn1sc(=O)n(Cc2ccccc2)c1=O,IRF Lucia reporter activity,[2]; cytotoxicity flag (confluency mask): cytotoxic (confluency <70% of control),0.292
CC(Nc1ncnc2[nH]cnc12)c1cc2ccc(F)cc2nc1-c1ccccn1 (stereo not drawn) (library stock concentration (final ~1000-fold dilution): 10 mM),IRF Lucia reporter activity,[1]; [4],0.716
same,IRF Lucia reporter activity,[1]; agonist: LPS (TLR4) 0.1 ug/mL,0.768
CC(C)(CO)n1cc(C(=O)c2cncc(NC(=O)Cc3ccc(Cl)cn3)c2)c2cnc(N)nc21 (library stock concentration (final ~1000-fold dilution): 10 mM),IRF Lucia reporter activity,[1]; [4],0.552
same,IRF Lucia reporter activity,[1]; agonist: LPS (TLR4) 0.1 ug/mL,1.09
CC(C)Cn1c(=O)n(C)c(=O)c2nc[nH]c21 (library stock concentration (final ~1000-fold dilution): 10 mM),IRF Lucia reporter activity,[1]; [4],0.896
same,IRF Lucia reporter activity,[1]; agonist: LPS (TLR4) 0.1 ug/mL,0.997
CC(C)Cn1c(=O)n(C)c(=O)c2nc[nH]c21,IRF Lucia reporter activity,[2]; [5],1.02
COc1ccc2cc3[n+](cc2c1OC)CCc1cc2c(cc1-3)OCO2 (library stock concentration (final ~1000-fold dilution): 10 mM),IRF Lucia reporter activity,[1]; [4],1.05 and 1.21
same,IRF Lucia reporter activity,[1]; agonist: LPS (TLR4) 0.1 ug/mL,1.07 and 1.14
CC1COC2Cn3cc(C(=O)NCc4ccc(F)cc4F)c(=O)c(O)c3C(=O)N12 (stereo not drawn) (library stock concentration (final ~1000-fold dilution): 10 mM),IRF Lucia reporter activity,[1]; [4],0.909
same,IRF Lucia reporter activity,[1]; agonist: LPS (TLR4) 0.1 ug/mL,0.781
CC(C)(C)OC(=O)Nc1ccc(-c2cc(C(=O)NCCCCCCC(=O)NO)no2)cc1 (library stock concentration (final ~1000-fold dilution): 10 mM),IRF Lucia reporter activity,[3]; [4],0.00937
same,IRF Lucia reporter activity,[3]; agonist: LPS (TLR4) 0.1 ug/mL,0.711
CCS(=O)(=O)N1CCN(c2ccc(Nc3ncc(C(N)=O)c(NC4CC4)n3)cc2)CC1.Cl (library stock concentration (final ~1000-fold dilution): 10 mM),IRF Lucia reporter activity,[3]; [4],0.0176
same,IRF Lucia reporter activity,[3]; agonist: LPS (TLR4) 0.1 ug/mL,0.0158
Cc1nc(C)c(C)nc1C (library stock concentration (final ~1000-fold dilution): 10 mM),IRF Lucia reporter activity,[1]; [4],0.978
same,IRF Lucia reporter activity,[1]; agonist: LPS (TLR4) 0.1 ug/mL,1.34
Cc1nc(C)c(C)nc1C,IRF Lucia reporter activity,[2]; [5],0.921
Cc1cc([N+](=O)[O-])c(NS(=O)(=O)c2cccc(C(=O)O)c2)cc1-c1cccnc1 (library stock concentration (final ~1000-fold dilution): 10 mM),IRF Lucia reporter activity,[1]; [4],0.929
same,IRF Lucia reporter activity,[1]; agonist: LPS (TLR4) 0.1 ug/mL,1
CC1(N)CCN(c2cnc(-c3cccc(Cl)c3Cl)c(N)n2)CC1.Cl (library stock concentration (final ~1000-fold dilution): 10 mM),IRF Lucia reporter activity,[1]; [4],0.835
same,IRF Lucia reporter activity,[1]; agonist: LPS (TLR4) 0.1 ug/mL,1.43
CC(C)(C)NCC(O)COc1cccc2c1CC(O)C(O)C2 (stereo not drawn),IRF Lucia reporter activity,[2]; [5],1.07
CC(C)(C)NCC(O)COc1cccc2c1CC(O)C(O)C2 (stereo not drawn) (library stock concentration (final ~1000-fold dilution): 10 mM),IRF Lucia reporter activity,[1]; [4],1.09
same,IRF Lucia reporter activity,[1]; agonist: LPS (TLR4) 0.1 ug/mL,1.2
COc1cc(-c2cc(-c3ccc(N4CCNCC4)cc3)cnc2C)cc(OC)c1OC (library stock concentration (final ~1000-fold dilution): 10 mM),IRF Lucia reporter activity,[1]; [4],0.125
same,IRF Lucia reporter activity,[1]; agonist: LPS (TLR4) 0.1 ug/mL,0.669
